In the supplement of paper PMC4166925:
± gives the standard deviation of the averaged measurements. The full ranking holds about 33,000 sequences; the median of “E-score (dimensionless, -0.5 to 0.5)” is about -0.046, and the highest 2% start at about 0.36. The list shows a part of the results.

These sequences were tested on T1, SpTbr T-box DNA-binding domain (GST fusion) (assay: PBM E-score of 8-mer (E-score (dimensionless, -0.5 to 0.5)); Tbr is Tbrain of the sea star Patiria miniata (Pm) or the sea urchin Strongylocentrotus purpuratus (Sp); higher = stronger binding preference; most listed sequences are background and not binding sites). Conditions: the construct has about 5 more residues each side.
T1 sequence: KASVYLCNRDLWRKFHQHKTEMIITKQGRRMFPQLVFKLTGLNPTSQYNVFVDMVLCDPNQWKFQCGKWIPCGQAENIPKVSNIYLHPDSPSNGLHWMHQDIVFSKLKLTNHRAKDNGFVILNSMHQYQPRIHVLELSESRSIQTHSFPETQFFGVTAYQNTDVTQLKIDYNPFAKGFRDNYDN
Summary of the method: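 GST-fused Tbr T-box DNA-binding domains (the whole T-box plus about five flanking residues) were expressed in BL21 E. coli at 20 °C and purified by glutathione affinity chromatography. Universal Agilent oligonucleotide arrays were made double-stranded by primer extension, incubated with 200 nM protein in PBS (pH 7.5), then scanned and quantified. Every ungapped 8-mer was scored from probe intensities. The Universal PBM Analysis Suite gave each word an enrichment E-score, averaged over duplicate arrays.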

Sequence	PBM E-score of 8-mer
AAGTGTTC	0.226 ± 0.11
AAGTATGA	-0.0929 ± 0.097
TCGTAAGA	-0.204 ± 0.0035
GTGTAACA	0.27 ± 0.017
ATTGCTAC	-0.186 ± 0.037
AAGAGAAT	-0.287 ± 0.022
AGTTAAAA	-0.143 ± 0.054
GCCCCTAC	-0.0948 ± 0.025
GGATAGCC	-0.214 ± 0.029
ACAAGGTA	0.0584 ± 0.021
AATAGCGC	0.158 ± 0.022
CTCTGAGC	-0.105 ± 0.021
AAAGGACC	-0.108 ± 0.026
GGTCCACA	0.078 ± 0.085
AACACTCG	0.193 ± 0.0083
CTGGCCCC	-0.113 ± 0.035
CTACTGGC	0.0629 ± 0.026
CTCCAGCA	-0.103 ± 0.0024
ATGACCAA	-0.137 ± 0.026
GTCATGAA	-0.13 ± 0.0072
AATGTGAT	0.253 ± 0.0037
CTCGTCCA	-0.0131 ± 0.024

Sequence	PBM E-score of 8-mer
AAGATCGA	-0.12 ± 0.059
AGGGTGTA	0.307 ± 0.035
AGGCTACT	0.0207 ± 0.0056
AGCGCACC	-0.00226 ± 0.0026
GTCGACCA	-0.132 ± 0.051
GATTCACC	-0.0546 ± 0.0018
ACGGTCGC	0.231 ± 0.037
AAATGAGG	-0.257 ± 0.035
ATGTCGAC	0.119 ± 0.059
GCCTCGCC	0.0505 ± 0.087
GTATATAC	0.0264 ± 0.12
AAACTCCG	-0.00816 ± 0.039
ACCTTTAA	0.00473 ± 0.039
TCGACGCA	-0.0484 ± 0.008
CATTAAGC	-0.289 ± 0.018
CTGTCATC	0.177 ± 0.013
TCAATCGA	-0.0374 ± 0.037
ATCCCAAA	-0.282 ± 0.029
CAGAGTGG	-0.183 ± 0.059
AGAAACAG	-0.152 ± 0.019
AGACGCCT	0.0499 ± 0.039
GATTACCA	-0.111 ± 0.013

Sequence	PBM E-score of 8-mer
CATTAGGG	-0.154 ± 0.023
AAAGTAGT	-0.0543 ± 0.04
ACGTAGTG	0.0424 ± 0.0026
ACATCACA	0.334 ± 0.015
GCGTCAGA	0.125 ± 0.049
GCCGATTA	-0.134 ± 0.067
AACTACTA	0.0694 ± 0.016
CCAGGCCC	-0.268 ± 0.06
ATTGCCCC	-0.232 ± 0.016
CCTACTAC	-0.0653 ± 0.03
GGCCTACC	-0.048 ± 0.0016
TAACTGGA	-0.118 ± 0.038
GCCGTGCA	-0.216 ± 0.1
CCTCGTAC	-0.22 ± 0.0077
AACTTTTA	-0.0953 ± 0.064
ATGAGTAC	-0.0248 ± 0.023
CCTAGGTC	0.00702 ± 0.05
CTGTCAAG	0.18 ± 0.023
GCTTTACC	-0.196 ± 0.021
CCTCAAAA	-0.153 ± 0.026
CTGACAAG	0.211 ± 0.018
GGAACCCC	-0.185 ± 0.0092

Sequence	PBM E-score of 8-mer
AAGACGCC	-0.0502 ± 0.016
CTAATATA	-0.3 ± 0.085
AGGCCAGG	-0.142 ± 0.04
ATCAAAAG	-0.237 ± 0.043
ACCCTTTC	-0.0966 ± 0.057
ACAGACGC	0.0616 ± 0.0029
GAACGTGA	0.101 ± 0.0031
GCCTCGTA	-0.267 ± 0.025
CACCTGCA	0.346 ± 0.0038
GTAGCCGA	-0.187 ± 0.026
CATGCTAA	0.0578 ± 0.029
GACGCTCC	-0.126 ± 0.02
CGTCGGAG	0.0498 ± 0.043
GGGCGCCC	0.00973 ± 0.072
CACGTCTC	0.0338 ± 0.053
ATAAACCG	-0.169 ± 0.054
CTAATGCA	0.038 ± 0.071
GCCTGAAA	-0.0776 ± 0.0074
GCGCACCC	0.212 ± 0.069
ACACACGG	0.0795 ± 0.13
AACCGACC	-0.016 ± 0.015
ATGCTGAG	-0.12 ± 0.1

Sequence	PBM E-score of 8-mer
CAACGCAG	-0.0456 ± 0.012
GAATAACC	-0.155 ± 0.032
AATAAGCC	-0.191 ± 0.022
ACTGGTCT	-0.28 ± 0.0082
CGCAGTTA	0.067 ± 0.066
CCGCCTGA	-0.356 ± 0.012
ATGAGCAT	-0.135 ± 0.0018
CAGGTTTA	-0.0433 ± 0.065
ATGAGAAA	-0.221 ± 0.031
TAAGACGA	-0.132 ± 0.059
AGCGATGA	0.0419 ± 0.037
ACTAGACT	-0.137 ± 0.048
AGTGTCAA	0.453 ± 0.0054
CAGATATC	-0.0613 ± 0.018
ACGGTGCC	0.118 ± 0.0085
ACAAAGTC	0.109 ± 0.039
CCGCTGAC	-0.016 ± 0.012
AGTGAAAA	0.0688 ± 0.073
ACCTAGGT	0.254 ± 0.061
CCCGCACG	0.124 ± 0.056
GAATCACC	0.00864 ± 0.021
